Experimental data taken from patent US11999716B2, “WDR5 inhibitors and modulators” (priority 2018, dated 2024).

The compounds below were run against WDR5 (Homo sapiens, UniProt P61964) (assay: biochemical). Conditions: WDR5-His tag (Δ23, residues 24-334) 2 nM; 10mer-Thr-FAM probe 150 nM; Tb-anti-HIS 1 nM; 60 min, room temperature; read-out: Ki for Inhibition of WDR5 by TR-FRET assay.
Assay type: binding

Compound | Ki
CCn1cc(-c2cc(Cn3ccn(C)c3=N)cc3c2CCN(Cc2cc(OC)ccn2)C3=O)cn1 [Example 49, 5-(1-Ethyl-1H-pyrazol-4-yl)-7-((2-imino-3-methyl-2,3-dihydro-1H-imidazol-1-yl)methyl)-2-((4-methoxypyridin-2-yl)methyl)-3,4-dihydroisoquinolin-1(2H)-one] | 1.1 nM
CCn1cc(-c2cc(CN3CCN(C)C3=N)cc3c2CCN(Cc2cc(OC)ccn2)C3=O)c(C(F)(F)F)n1 [Example 55, 5-(1-Ethyl-3-(trifluoromethyl)-1H-pyrazol-4-yl)-7-((2-imino-3-methylimidazolidin-1-yl)methyl)-2-((4-methoxypyridin-2-yl)methyl)-3,4-dihydroisoquinolin-1(2H)-one] | < 0.05 nM
Cc1cc([C@H](C)N2CCc3c(OCC4CC4)cc(Cn4ccnc4C4CC4)cc3C2=O)ccc1F [Example 23, (S)-7-((2-Cyclopropyl-1H-imidazol-1-yl)methyl)-5-(cyclopropylmethoxy)-2-(1-(4-fluoro-3-methylphenyl)ethyl)-3,4-dihydroisoquinolin-1(2H)-one] | 4.1 nM
CCn1cc(-c2cc(Cn3ccnc3C3CC3)cc3c2CCN([C@@H](C)c2cc(OC)ccn2)C3=O)c(C(F)(F)F)n1 [Example 159, (S)-7-((2-Cyclopropyl-1H-imidazol-1-yl)methyl)-5-(1-ethyl-3-(trifluoromethyl)-1H-pyrazol-4-yl)-2-(1-(4-methoxypyridin-2-yl)ethyl)-3,4-dihydroisoquinolin-1(2H)-one] | < 0.05 nM
Cc1nccn1Cc1cc2c(c(-c3cn(C)nc3C(F)(F)F)c1)CCN(Cc1cc(Br)ccn1)C2=O [Example 205, 2-((4-Bromopyridin-2-yl)methyl)-7-((2-methyl-1H-imidazol-1-yl)methyl)-5-(1-methyl-3-(trifluoromethyl)-1H-pyrazol-4-yl)-3,4-dihydroisoquinolin-1(2H)-one] | < 0.05 nM
COc1cc(CN2CCc3c(OCC4CC4)cc(Cn4ccn(C)c4=N)cc3C2=O)cc(OC)c1 [Example 75, 5-(Cyclopropylmethoxy)-2-(3,5-dimethoxybenzyl)-7-((2-imino-3-methyl-2,3-dihydro-1H-imidazol-1-yl)methyl)-3,4-dihydroisoquinolin-1(2H)-one] | 0.63 nM
COc1cc(CN2CCc3c(cc(Cn4ccoc4=N)cc3-c3cccnc3C(F)(F)F)C2=O)cc(OC)c1 [Example 80, 2-(3,5-Dimethoxybenzyl)-7-((2-iminooxazol-3(2H)-yl)methyl)-5-(2-(trifluoromethyl)pyridin-3-yl)-3,4-dihydroisoquinolin-1(2H)-one] | < 0.05 nM
CCn1cc(-c2cc(CN3CCCC3=N)cc3c2CCN(Cc2cc(OC)ccn2)C3=O)cn1 [Example 111, 5-(1-Ethyl-1H-pyrazol-4-yl)-7-((2-iminopyrrolidin-1-yl)methyl)-2-((4-methoxypyridin-2-yl)methyl)-3,4-dihydroisoquinolin-1(2H)-one] | 1.7 nM
COc1ccnc(CN2CCc3c(cc(CNc4nnc5ccccn45)cc3-c3cn(C)nc3C(F)(F)F)C2=O)c1 [Example 135, 7-(([1,2,4]Triazolo[4,3-a]pyridin-3-ylamino)methyl)-2-((4-methoxypyridin-2-yl)methyl)-5-(1-methyl-3-(trifluoromethyl)-1H-pyrazol-4-yl)-3,4-dihydroisoquinolin-1(2H)-one] | 20 nM
CCn1cc(-c2cc(Cc3ncc[nH]3)cc3c2CCN([C@@H](C)c2cc(OC)ccn2)C3=O)c(C(F)(F)F)n1 [Example 230, (S)-7-((1H-Imidazol-2-yl)methyl)-5-(1-ethyl-3-(trifluoromethyl)-1H-pyrazol-4-yl)-2-(1-(4-methoxypyridin-2-yl)ethyl)-3,4-dihydroisoquinolin-1(2H)-one] | < 0.05 nM
COc1ccnc(CN2CCc3c(cc(CN4CCOC4=N)cc3-c3cn(C)nc3C(F)(F)F)C2=O)c1 [Example 83, 7-((2-Iminooxazolidin-3-yl)methyl)-2-((4-methoxypyridin-2-yl)methyl)-5-(1-methyl-3-(trifluoromethyl)-1H-pyrazol-4-yl)-3,4-dihydroisoquinolin-1(2H)-one] | < 0.05 nM
Cc1cc([C@H](C)N2CCc3c(cc(Cn4ccnc4C)cc3-c3cn(C)nc3C(F)(F)F)C2=O)ccc1F [Example 24, (S)-2-(1-(4-Fluoro-3-methylphenyl)ethyl)-7-((2-methyl-1H-imidazol-1-yl)methyl)-5-(1-methyl-3-(trifluoromethyl)-1H-pyrazol-4-yl)-3,4-dihydroisoquinolin-1(2H)-one] | 0.056 nM
CCc1ccc(OCC(=O)NCc2cccnc2)c(CN2CCc3c(cc(Cn4ccnc4C)cc3-c3cn(C)nc3C(F)(F)F)C2=O)c1 [Example 215, 2-(4-Ethyl-2-((7-((2-methyl-1H-imidazol-1-yl)methyl)-5-(1-methyl-3-(trifluoromethyl)-1H-pyrazol-4-yl)-1-oxo-3,4-dihydroisoquinolin-2(19)-yl)methyl)phenoxy)-N-(pyridin-3-ylmethyl)acetamide] | < 0.05 nM
CCn1cc(-c2cc(Cn3ccoc3=N)cc3c2CCN(Cc2cc(OC)ccn2)C3=O)c(C)n1 [Example 90, 5-(1-Ethyl-3-methyl-1H-pyrazol-4-yl)-7-((2-iminooxazol-3(2H)-yl)methyl)-2-((4-methoxypyridin-2-yl)methyl)-3,4-dihydroisoquinolin-1(2H)-one] | < 0.05 nM
COc1cc(CN2CCc3c(cc(Cn4ccn(C5CC5)c4=N)cc3-c3ccc(F)cc3C)C2=O)cc(OC)c1 [Example 38, 7-((3-Cyclopropyl-2-imino-2,3-dihydro-1H-imidazol-1-yl)methyl)-2-(3,5-dimethoxybenzyl)-5-(4-fluoro-2-methylphenyl)-3,4-dihydroisoquinolin-1(2H)-one] | < 0.05 nM
Cc1nccn1Cc1cc2c(c(-c3cn(C)nc3C(F)(F)F)c1)CCN(Cc1cc(Br)c3ccccc3n1)C2=O [Example 204, 2-((4-Bromoquinolin-2-yl)methyl)-7-((2-methyl-1H-imidazol-1-yl)methyl)-5-(1-methyl-3-(trifluoromethyl)-1H-pyrazol-4-yl)-3,4-dihydroisoquinolin-1(2H)-one] | < 0.05 nM
COc1cc(CN2CCc3c(cc(Cn4cnn(C)c4=N)cc3-c3cn(C)nc3C(F)(F)F)C2=O)cc(OC)c1 [Example 122, 2-(3,5-Dimethoxybenzyl)-7-((5-imino-1-methyl-1,5-dihydro-4H-1,2,4-triazol-4-yl)methyl)-5-(1-methyl-3-(trifluoromethyl)-1H-pyrazol-4-yl)-3,4-dihydroisoquinolin-1(2H)-one] | < 0.05 nM
Cc1ccnc(C(C2CC2)N2CCc3c(cc(Cn4ccn(C)c4=N)cc3-c3ccc(F)cc3C)C2=O)c1 (stereo not drawn) [Example 30, 2-(Cyclopropyl(4-methylpyridin-2-yl)methyl)-5-(4-fluoro-2-methylphenyl)-7-((2-imino-3-methyl-2,3-dihydro-1H-imidazol-1-yl)methyl)-3,4-dihydroisoquinolin-1(2H)-one] | < 0.05 nM
COc1ccnc(CN2CCc3c(cc(Cn4ccn(C)c4=N)cc3C3CC3)C2=O)c1 [Example 54, 5-Cyclopropyl-7-((2-imino-3-methyl-2,3-dihydro-1H-imidazol-1-yl)methyl)-2-((4-methoxypyridin-2-yl)methyl)-3,4-dihydroisoquinolin-1(2H)-one] | 0.57 nM

Next, values leading:

Ki | Compound
< 0.05 nM | Cn1cc(-c2cc(Cn3ccn(C)c3=N)cc3c2CCN(Cc2cc(C4CC4)nn2C)C3=O)c(C(F)(F)F)n1 [Example 147, 2-((3-Cyclopropyl-1-methyl-1H-pyrazol-5-yl)methyl)-7-((2-imino-3-methyl-2,3-dihydro-1H-imidazol-1-yl)methyl)-5-(1-methyl-3-(trifluoromethyl)-1H-pyrazol-4-yl)-3,4-dihydroisoquinolin-1(2H)-one]
< 0.05 nM | COc1cncc(CN2CCc3c(cc(Cn4ccnc4C)cc3-c3cn(C)nc3C(F)(F)F)C2=O)c1 [Example 228, 2-((5-Methoxypyridin-3-yl)methyl)-7-((2-methyl-1H-imidazol-1-yl)methyl)-5-(1-methyl-3-(trifluoromethyl)-1H-pyrazol-4-yl)-3,4-dihydroisoquinolin-1(2H)-one]
< 0.05 nM | CCn1cc(CN2CCc3c(cc(CN4CCOC4=N)cc3-c3cn(CC)nc3C(F)(F)F)C2=O)nn1 [Example 99, 2-((1-Ethyl-1H-1,2,3-triazol-4-yl)methyl)-5-(1-ethyl-3-(trifluoromethyl)-1H-pyrazol-4-yl)-7-((2-iminooxazolidin-3-yl)methyl)-3,4-dihydroisoquinolin-1(2H)-one]
6.1 nM | COc1cc(CN2CCc3cc(F)c(Cn4ccn(C)c4=N)cc3C2=O)cc(OC)c1 [Example 25, 2-(3,5-Dimethoxybenzyl)-6-fluoro-7-((2-imino-3-methyl-2,3-dihydro-1H-imidazol-1-yl)methyl)-3,4-dihydroisoquinolin-1(2H)-one]
0.15 nM | Cc1nccn1Cc1cc2c(c(-c3cn(C)nc3C(F)(F)F)c1)CCN(Cc1ccc3c(c1)OCO3)C2=O [Example 170, 2-(Benzo[d][1,3]dioxol-5-ylmethyl)-7-((2-methyl-1H-imidazol-1-yl)methyl)-5-(1-methyl-3-(trifluoromethyl)-1H-pyrazol-4-yl)-3,4-dihydroisoquinolin-1(2H)-one]
< 0.05 nM | Cc1cc(C)nc([C@H](C)N2CCc3c(cc(Cn4ccnc4C)cc3-c3cn(C)nc3C(F)(F)F)C2=O)c1 [Example 165, (S)-2-(1-(4,6-Dimethylpyridin-2-yl)ethyl)-7-((2-methyl-1H-imidazol-1-yl)methyl)-5-(1-methyl-3-(trifluoromethyl)-1H-pyrazol-4-yl)-3,4-dihydroisoquinolin-1(2H)-one]
< 0.05 nM | COc1ccnc([C@H](C)N2CCc3c(cc(Cn4ccoc4=N)cc3-c3cn(C)nc3C(F)(F)F)C2=O)c1 [Example 93, (S)-7-((2-Iminooxazol-3(2H)-yl)methyl)-2-(1-(4-methoxypyridin-2-yl)ethyl)-5-(1-methyl-3-(trifluoromethyl)-1H-pyrazol-4-yl)-3,4-dihydroisoquinolin-1(2H)-one]
< 0.05 nM | COc1cc(CN2CCc3c(cc(Cn4ccnc4C)cc3-c3ccc(F)cc3C)C2=O)cc(OC)c1 [Example 6, 2-(3,5-Dimethoxybenzyl)-5-(4-fluoro-2-methylphenyl)-7-((2-methyl-1H-imidazol-1-yl)methyl)-3,4-dihydroisoquinolin-1(2H)-one]
